Structures are written as SMILES. Out of some 310,000 compounds screened, about 14,000 (4.5%) showed an effect of 50% or more. Effects have a minus sign here. This is one part of the list.
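Also: peak tail current of the secondary pulse compared with the same well before compound.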

Chain of human ether-à-go-go-related gene (hERG) potassium channel (Q12809 whole entry, looked up): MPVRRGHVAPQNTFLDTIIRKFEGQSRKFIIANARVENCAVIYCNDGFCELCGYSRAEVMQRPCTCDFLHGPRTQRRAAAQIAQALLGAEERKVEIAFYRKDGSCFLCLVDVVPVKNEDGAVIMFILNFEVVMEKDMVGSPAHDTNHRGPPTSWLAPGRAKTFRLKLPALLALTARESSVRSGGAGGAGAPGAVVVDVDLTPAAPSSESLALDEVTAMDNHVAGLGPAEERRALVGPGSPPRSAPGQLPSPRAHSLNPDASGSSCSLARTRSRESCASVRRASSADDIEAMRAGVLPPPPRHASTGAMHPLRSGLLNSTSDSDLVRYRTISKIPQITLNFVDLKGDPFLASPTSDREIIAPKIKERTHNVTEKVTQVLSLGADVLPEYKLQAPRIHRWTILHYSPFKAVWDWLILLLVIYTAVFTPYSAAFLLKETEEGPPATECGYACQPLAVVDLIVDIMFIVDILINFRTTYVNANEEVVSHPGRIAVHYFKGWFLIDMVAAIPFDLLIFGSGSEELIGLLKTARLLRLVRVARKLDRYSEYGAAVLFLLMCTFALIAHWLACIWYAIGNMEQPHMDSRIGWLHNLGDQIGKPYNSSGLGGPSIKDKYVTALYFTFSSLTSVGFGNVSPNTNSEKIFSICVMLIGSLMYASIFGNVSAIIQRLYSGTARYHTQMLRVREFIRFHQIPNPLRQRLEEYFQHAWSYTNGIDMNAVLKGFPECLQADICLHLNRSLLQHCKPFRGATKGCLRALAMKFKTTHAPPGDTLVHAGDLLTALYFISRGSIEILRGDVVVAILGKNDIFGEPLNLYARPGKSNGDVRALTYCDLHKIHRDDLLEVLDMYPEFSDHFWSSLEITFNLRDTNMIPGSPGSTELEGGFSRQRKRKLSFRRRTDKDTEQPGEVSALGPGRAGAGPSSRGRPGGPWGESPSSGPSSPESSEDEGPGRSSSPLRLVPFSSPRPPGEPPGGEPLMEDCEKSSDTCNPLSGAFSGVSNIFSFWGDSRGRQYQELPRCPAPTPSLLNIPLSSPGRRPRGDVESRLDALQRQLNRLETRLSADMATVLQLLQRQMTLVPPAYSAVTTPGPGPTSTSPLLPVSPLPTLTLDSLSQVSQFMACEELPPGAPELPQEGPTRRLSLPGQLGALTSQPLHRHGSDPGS

The assay has as its target human ether-à-go-go-related gene (hERG) potassium channel (human, UniProt Q12809). Nature of the assay: primary screen, population patch clamp on CHO cells stably expressing hERG.
Regarding `Nc1nccnc1C(=O)OCC(=O)NCCc1ccc(S(N)(=O)=O)cc1`, the “hERG current change (%, negative = inhibition) at 10uM” value worked out at 11.1%. Turning to `COc1ccc(OC)c(-c2csc3nnc(SCC(=O)Nc4ccc(NC(C)=O)cc4)n23)c1`, the “hERG current change (%, negative = inhibition) at 10uM” value stood at 2.89%. As to `O=C(NCCc1ccc(F)cc1)c1cc(=O)c2ccccc2o1`, the “hERG current change (%, negative = inhibition) at 10uM” value is 0.701%. With `Cc1ccc(C2=NN(C)c3nc4ccccc4n3C2)cc1`, the “hERG current change (%, negative = inhibition) at 10uM” value came out at 6.76%. Then `C/C(=N\NC(=O)c1cccc(S(=O)(=O)Nc2cccc(Cl)c2)c1)c1cccs1`, with 5.27%; and `CCOC(=O)c1ccc(N=Nc2c(C)[nH]n(-c3ccccc3)c2=O)cc1`, with 16.1%; and `C=C(C)Cn1c(C(C)NC(=O)CCC)nc2ccccc21` (stereo not drawn), with 13.1%. The result for `O=C(O)C(=O)O.Oc1ccccc1NCC(O)Cn1ccc2ccccc21` (stereo not drawn) reads 13.4%; that for `Cc1cccc(N2CCN(C(=O)CCC(=O)N3CC(C)Oc4ccccc43)CC2)c1C` (stereo not drawn), -13%. Then `CCCN(CCC)C(=O)CSc1nc2c(sc(=S)n2-c2ccc(OCC)cc2)c(=O)[nH]1`, with -1.18%. As for `Cn1cc(CN2CCCCC2C(=O)Nc2ccc(-n3cccn3)cc2)cn1` (stereo not drawn), the “hERG current change (%, negative = inhibition) at 10uM” value came out at 10.3%. The result for `CCC1(C)CC(CCN(Cc2ccco2)C(C)=O)(c2ccccc2)CCO1` (stereo not drawn) reads -6.78%.

In the case of `CCOC(=O)NCc1ccc(S(=O)(=O)Nc2ccccc2C)cc1`, the “hERG current change (%, negative = inhibition) at 10uM” value was -37.9%.

In the case of `Cn1cc(C(=O)C(=O)N2CCN(c3ccccc3)CC2)c2ccccc21`, the “hERG current change (%, negative = inhibition) at 10uM” value is reported as 0.853%. The result for `Cc1cccc(N2CCN(C(=O)NCc3ccc(F)cc3)CC2)c1C` reads 0.166%; that for `O=C(CC1S/C(=N/N=C/c2ccco2)NC1=O)Nc1ccccc1` (stereo not drawn), 14.4%; that for `CCN(CC)S(=O)(=O)c1ccc(OC)c(NC(=O)c2cccs2)c1`, 25%. Then `COC(=O)C1=CO[C@@H](O)C2C(CO)=CCC12` (stereo partly drawn), with 21.6%; and `C=C(C)Cn1cnc2cc(C)c(C)cc21`, with 1.55%; and `CCOc1ccc(-c2nnc3ccc(SC)nn23)cc1`, with -4.21%. Regarding `Cc1c(CCO)c(=O)[nH]n1S(=O)(=O)c1cccc(C(F)(F)F)c1`, the “hERG current change (%, negative = inhibition) at 10uM” value stood at 9.25%. On to `Cc1ccc(C(=O)NCCCNC(=O)c2ccc(Cl)cc2)cn1`, for which the “hERG current change (%, negative = inhibition) at 10uM” value was 0.443%. The result for `CC(C)(C)c1ccc(-c2nnc(SCCN3C(=O)c4ccccc4C3=O)o2)cc1` reads 6.33%; that for `CCOCCCNC(=O)C(Cc1ccccc1)NC(=O)c1ccco1` (stereo not drawn), -6.26%. Regarding `Cc1cccc2nc(C(F)(F)F)nc(=O)n12`, the “hERG current change (%, negative = inhibition) at 10uM” value worked out at 13.6%. Consider `CCC(=O)NCC(c1cccs1)N1CCOCC1.Cl` (stereo not drawn), for which the “hERG current change (%, negative = inhibition) at 10uM” value is 7.28%. Turning to `CC(O)c1nc2cc([N+](=O)[O-])ccc2n1Cc1ccccc1` (stereo not drawn), the “hERG current change (%, negative = inhibition) at 10uM” value is listed as 1.79%.

With `CCC(=O)c1ccc(OC(=O)C2CCN(C3=NS(=O)(=O)c4ccccc43)CC2)cc1`, the “hERG current change (%, negative = inhibition) at 10uM” value is on record as 5.79%. Then `Cc1nc(SCC(=O)Nc2nc3ccccc3s2)c(C#N)c(C)c1C`, with 18%. As for `COc1ncnc2sc(-c3ccccc3)cc12`, the “hERG current change (%, negative = inhibition) at 10uM” value worked out at 10.4%. On to `CCCC(=O)Nc1nc(C(=O)OCC)cs1`, for which the “hERG current change (%, negative = inhibition) at 10uM” value was 7.78%. Regarding `CCc1nnc(NC(=O)C2(C)COC(c3ccc(OC)cc3)OC2)s1` (stereo not drawn), the “hERG current change (%, negative = inhibition) at 10uM” value came to 10.1%. On to `COc1ccc(CCNC(=O)CCn2c(SCC(=O)N3CCCC3)nc3ccccc3c2=O)cc1OC`, for which the “hERG current change (%, negative = inhibition) at 10uM” value is 2.52%. For `CCCn1c(SCC(=O)Nc2cccc(C)n2)nnc1C(C)C`, the “hERG current change (%, negative = inhibition) at 10uM” value came out at 15.8%. For the compound `CC(=O)Oc1ccccc1C(=O)Nc1ccccc1`, the “hERG current change (%, negative = inhibition) at 10uM” value was determined as 10.3%. On to `CCC(CC)C(=O)Nc1ccc(-c2cn3cccnc3n2)cc1`, for which the “hERG current change (%, negative = inhibition) at 10uM” value is given as 4.74%. Turning to `CCCOc1cccc(C(=O)N(Cc2ccc(OC)c(OC)c2)C2CCS(=O)(=O)C2)c1` (stereo not drawn), the “hERG current change (%, negative = inhibition) at 10uM” value is -17.4%. As for `Cc1onc(-c2ccccc2)c1-c1nnc(CN2CCN(S(=O)(=O)c3ccccc3)CC2)o1`, the “hERG current change (%, negative = inhibition) at 10uM” value is on record as -33%. Consider `CCOC(=O)CCCc1c[nH]c2ccccc12`, for which the “hERG current change (%, negative = inhibition) at 10uM” value is reported as -2.73%. Regarding `CC(C)=CC(=O)N1CCC(n2nccc2NC(=O)CCc2ccccc2)CC1`, the “hERG current change (%, negative = inhibition) at 10uM” value was found to be 10.3%.

With `Cc1cc(Cl)c(OCCCCN2CCOCC2)c(Br)c1`, the “hERG current change (%, negative = inhibition) at 10uM” value is given as -30.2%. Consider `O=C(CSc1nnc(-c2cccs2)n1-c1ccccc1)NCc1ccc2c(c1)OCO2`, for which the “hERG current change (%, negative = inhibition) at 10uM” value is given as -43.7%. For the compound `Cc1ccccc1C(=O)N/N=C/c1cccc2ccccc12`, the “hERG current change (%, negative = inhibition) at 10uM” value is reported as 14.6%. Take `COc1cc(Br)c(C2C(C#N)=C(N)Oc3n[nH]c(-c4cccnc4)c32)cc1OC` (stereo not drawn): the “hERG current change (%, negative = inhibition) at 10uM” value is on record as 6.8%.

On to `COc1cccc(CNC(=O)C23CN(Cc4ccccc4)CC2C(c2ccc([N+](=O)[O-])cc2)=NO3)c1` (stereo not drawn), for which the “hERG current change (%, negative = inhibition) at 10uM” value was -52.1%. With `Cc1oc(-c2ccccc2)cc1C(=O)Nc1ccc(N(C)C)cc1`, the “hERG current change (%, negative = inhibition) at 10uM” value is recorded as 10.3%. As for `Cc1cc(C)n(-c2ccc(C(=O)OCC(=O)Nc3cc(S(C)(=O)=O)ccc3Cl)cc2)n1`, the “hERG current change (%, negative = inhibition) at 10uM” value is reported as -24.9%. Regarding `O=c1c2sccc2[nH]c(=S)n1Cc1ccccc1`, the “hERG current change (%, negative = inhibition) at 10uM” value is reported as 14.7%.

For the compound `O=C(c1cc2cc([N+](=O)[O-])ccc2s1)N1CCOCC1`, the “hERG current change (%, negative = inhibition) at 10uM” value is -23.2%. The result for `CCCc1cc(=O)oc2cc(OCC(=O)N(C)C)c(Cl)cc12` reads 8.47%; that for `COc1ccc(Br)cc1C(=O)Nc1cccc2ncccc12`, 7.28%.

For `CCN1CCN(C(c2cccs2)C(C)NS(=O)(=O)c2ccc(C)cc2)CC1` (stereo not drawn), the “hERG current change (%, negative = inhibition) at 10uM” value is -20%. Turning to `COC(=O)c1cn(NC(=O)/C=C/c2ccc(OC)c(OC)c2)c(=O)c2ccccc12`, the “hERG current change (%, negative = inhibition) at 10uM” value is given as -2.43%. Turning to `CCOC(=O)c1c(-c2cccs2)csc1NC(=O)c1ccco1`, the “hERG current change (%, negative = inhibition) at 10uM” value came out at 11.5%.

With `CC1CN=C(NCc2ccccc2Cl)S1` (stereo not drawn), the “hERG current change (%, negative = inhibition) at 10uM” value is recorded as -2.16%. With `CCN1C(=O)[C@H]2[C@@H](c3ccc(-c4ccc(C(C)=O)cc4)c(OC)c3)N[C@@](Cc3ccccc3)(C(=O)OC)[C@H]2C1=O.O=C(O)C(F)(F)F`, the “hERG current change (%, negative = inhibition) at 10uM” value is on record as 15.7%. Turning to `Cc1cc(F)ccc1S(=O)(=O)N1CCCOC1CNC(=O)C(=O)NCCc1c[nH]c2ccccc12` (stereo not drawn), the “hERG current change (%, negative = inhibition) at 10uM” value was 1.18%.

For the origin of these results see article PMC4336329 (PLoS ONE, 2015).
